Assay in all cases: Primary Screen for Target Class Profiling of Small Molecule Inhibitors of Methyltransferases
Assay [1] concerns the target Glycine N-methyltransferase (Homo sapiens) (UniProt Q14749). To be noted: purified enzyme, MTase-Glo SAH luminescence; measured here: GNMT inhibition; at 40 µM; stronger effect = lower value. Summed up:
(§1)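 Each enzyme was assayed with SAM and its substrate. SAH formation detected by MTase-Glo luminescence; single-point 40 uM screen[…].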

Assay [2] addresses Guanidinoacetate N-methyltransferase (Homo sapiens) (UniProt Q14353). To be noted: purified enzyme, MTase-Glo SAH luminescence; measured here: GAMT inhibition; at 40 µM; stronger effect = lower value. Summed up:
as §1

Assay [3] concerns the target Histamine N-methyltransferase (Homo sapiens) (UniProt P50135). To be noted: purified enzyme, MTase-Glo SAH luminescence; measured here: HNMT inhibition; at 40 µM; stronger effect = lower value. Summed up: as §1
Assay [4] deals with Nicotinamide N-methyltransferase (Homo sapiens) (UniProt P40261). To be noted: purified enzyme, MTase-Glo SAH luminescence; measured here: NNMT inhibition; at 40 µM; stronger effect = lower value. Summed up:
as §1

The target of assay [5] is Phenylethanolamine N-methyltransferase (Homo sapiens) (UniProt P11086). Particulars: purified enzyme, MTase-Glo SAH luminescence; measured here: PNMT inhibition; at 40 µM; stronger effect = lower value. An outline of the steps:
as §1

Structures are written as SMILES. The list shows a part of the results. The main result of the screen is listed elsewhere. These columns were measured beside it and carry no call.
% is set by controls: 0 for no effect and ±100 for the full control effect.

Regarding `CC(=O)NCCC(=O)N1CCC2(CC1)CN(C(=O)NC(C)C)CCO2`, the activity change, negative = inhibition was 0.627% in assay [1]; -4.65% in assay [2]; 0.748% in assay [3]; -0.212% in assay [4]; -0.811% in assay [5].

`C=C1CCC2C(C)(C)CCCC2(C)C1CC/C(C)=C\CO` (stereo not drawn): the activity change, negative = inhibition in assay [1] was -9.79%; in assay [2], -22%; in assay [3], -1.7%; in assay [4], -35.5%; in assay [5], -10.4%.

Take `CC(C)CCN1CCNC(=O)C1CC(=O)N(Cc1cnn(C)c1)C1CC1` (stereo not drawn): the activity change, negative = inhibition in assay [1] was -4.41%; in assay [2], 1.77%; in assay [3], 0.539%; in assay [4], -0.403%; in assay [5], -4.04%.

With `COc1ccc(CNC(=O)C[C@@H]2CCNC[C@@H]2Cc2cc(C(C)(C)C)on2)cc1`, the activity change, negative = inhibition in assay [1] is -6.93%; in assay [2] it was -4.96%; in assay [3], -3.28%; in assay [4], -9.4%; in assay [5] it was -8.14%.

`CC(C)OCCCn1c(=O)c2ccccc2n2c(SCc3ccc(F)cc3Cl)nnc12`: the activity change, negative = inhibition was -3.43% in assay [1]; 0.242% in assay [2]; 6.61% in assay [3]; -15.9% in assay [4]; 2.97% in assay [5].

Consider `CCc1ccc(N2C(=O)c3cc4sccc4n3CC2(C)C(=O)NC2CCCCCC2)cc1` (stereo not drawn), for which the activity change, negative = inhibition in assay [1] is 4.92%; in assay [2], -40.9%; in assay [3] it was 4.91%; in assay [4], 3.77%; in assay [5] it was -1.54%.

For the compound `COc1ccc(-c2cc3c(=O)n(CCNC(=O)c4ccsc4)ccn3n2)cc1`, the activity change, negative = inhibition was -15.4% in assay [1]; -8.14% in assay [2]; -6.4% in assay [3]; -17.6% in assay [4]; -9.25% in assay [5].

As for `COc1cc(NS(C)(=O)=O)ccc1Nc1c2ccccc2nc2ccccc12`, the activity change, negative = inhibition is -20.4% in assay [1]; -2.38% in assay [2]; -26% in assay [3]; -17.9% in assay [4]; -18.2% in assay [5].

On to `CCOc1ccc(-c2cc3c(=O)n(CCNC(=O)c4cnccn4)ccn3n2)cc1`, for which the activity change, negative = inhibition was -5.25% in assay [1]; -5.72% in assay [2]; 1.42% in assay [3]; -7.3% in assay [4]; -3.79% in assay [5].

Turning to `CCn1c(N)c(C(=O)NC)c(=O)c2ccc(C#C[C@@](C)(O)COC)nc21`, the activity change, negative = inhibition in assay [2] was -10.2%; in assay [4], -27.4%; in assay [5], -17%.

Regarding `C=CCn1c(=O)c2ccc(C(=O)NCC(C)C)cc2n2c(=O)n(CC(N)=O)nc12`, the activity change, negative = inhibition in assay [1] was -2.34%; in assay [2], 3.18%; in assay [3], -1.4%; in assay [4] it was -1.16%; in assay [5], 2.39%.

Consider `Cc1cccc(-c2n[nH]n3c2nc(=O)c2ccc(C(=O)N4CCN(c5ccccc5)CC4)cc23)c1`, for which the activity change, negative = inhibition is -27.8% in assay [1]; -5.57% in assay [2]; -12.5% in assay [3]; -22.7% in assay [4]; -11.4% in assay [5].

On to `COc1ccc(-c2cc(C(=O)NCC3CC3)c3c(C4CCNC4)noc3n2)cc1` (stereo not drawn), for which the activity change, negative = inhibition in assay [1] is -1.04%; in assay [2], -0.933%; in assay [3], -9.25%; in assay [4] it was -6.9%; in assay [5], -2.09%.

For the compound `CC(C)CCNC(=O)C1(C)Cn2nc(C(=O)NCC(C)c3ccccc3)cc2C(=O)N1C` (stereo not drawn), the activity change, negative = inhibition was determined as 2.57% in assay [1]; 0% in assay [2]; 5.24% in assay [3]; 6.2% in assay [4]; 2.57% in assay [5].

`Cc1ccc(Cl)cc1N1C(=O)c2cc(C(C)(C)C)nn2CC1(C)C(=O)NC1CCCCC1` (stereo not drawn): the activity change, negative = inhibition in assay [1] was -6.66%; in assay [2] it was -2.21%; in assay [3], 1.25%; in assay [4] it was -1.18%; in assay [5], -6.32%.

As for `COc1cc(C(CO)C(OC2OC(CO)C(O)C(O)C2O)c2ccc(O)c(OC)c2)ccc1O` (stereo not drawn), the activity change, negative = inhibition in assay [1] is 7.26%; in assay [2], 6.32%; in assay [3], 11.1%; in assay [4], -14.2%; in assay [5], 5.65%.

Regarding `Cc1cc(C)cc(NC(=O)Cn2nc3n(CCCOC(C)C)c(=O)c4ccccc4n3c2=O)c1`, the activity change, negative = inhibition was -0.743% in assay [1]; 4.45% in assay [2]; 1.77% in assay [3]; -2.13% in assay [4]; 2.17% in assay [5].

In the case of `COc1ccc(CNC(=O)[C@H]2CNC[C@H](C(=O)N3CCCC3)C2)c(F)c1F`, the activity change, negative = inhibition in assay [1] was -6.06%; in assay [2], -3.25%; in assay [3], -2.93%; in assay [4] it was -6.08%; in assay [5] it was -10.9%.

As for `CC(=O)NC1(C)CCCN(Cc2cc(-c3c(C)noc3C)cs2)C1` (stereo not drawn), the activity change, negative = inhibition in assay [1] is -1.86%; in assay [2] it was 1.11%; in assay [3], -1.35%; in assay [4], -3.64%; in assay [5], -1.22%.

For `CC1(C(=O)NCc2ccc(F)cc2)Cn2cnc(C(=O)NC3CC3)c2C(=O)N1C1CC1` (stereo not drawn), the activity change, negative = inhibition in assay [1] is -1.18%; in assay [2], 0%; in assay [3], 4%; in assay [4], 1.6%; in assay [5], -0.027%.

For `CN(CC(=O)Nc1cccc(C(F)(F)F)c1)S(=O)(=O)c1ccc2[nH]c3c(c2c1)CCCC3`, the activity change, negative = inhibition in assay [1] was -10%; in assay [2], -3.08%; in assay [3] it was -10%; in assay [4] it was -14%; in assay [5], -7.69%.

Turning to `O=C(C1CCCN(c2cnn(Cc3ccccc3)c(=O)c2)C1)N1CCCN(c2ncccn2)CC1` (stereo not drawn), the activity change, negative = inhibition in assay [1] was -2.17%; in assay [2] it was -1.04%; in assay [3], -5.27%; in assay [4] it was -7.23%; in assay [5], 0.438%.

In the case of `FC(F)c1nc2ccccc2n1-c1nc(N2CCOCC2)nc(N2CCOCC2)n1`, the activity change, negative = inhibition in assay [1] was 1.63%; in assay [2], 2.84%; in assay [3], 7.24%; in assay [4] it was -15.6%; in assay [5], -3.14%.

`CCCNC(=O)N1CCc2nc(N3CCN(C)CC3)sc2C1`: the activity change, negative = inhibition in assay [1] is -3.35%; in assay [2] it was -0.207%; in assay [3], -3.49%; in assay [4], 0.179%; in assay [5] it was 4.55%.

As to `CCOc1ccc(-c2ccnc(NC[C@@H]3CCCO3)n2)cc1C(=O)O`, the activity change, negative = inhibition in assay [1] was -7.43%; in assay [2], -4.45%; in assay [3], -5.72%; in assay [4] it was -10.3%; in assay [5] it was -13.4%.

On to `CCn1cc(CN2CCCC23CCN(c2cc(C)nc4ccccc24)CC3)c(C)n1`, for which the activity change, negative = inhibition was -44.4% in assay [1]; -8.62% in assay [2]; -72.4% in assay [3]; -36.1% in assay [4]; -23.5% in assay [5].

Consider `COc1ccccc1CN1C(=O)c2cc3ccccc3n2CC1(C)C(=O)NCc1ccccc1` (stereo not drawn), for which the activity change, negative = inhibition is 2.95% in assay [1]; 1.06% in assay [2]; 5.97% in assay [3]; 1.29% in assay [4]; -1.8% in assay [5].

As for `COCCN[C@H]1[C@@H]2OC[C@@H](O2)[C@@H](NCc2cnc3ccccc3c2)[C@@H]1O`, the activity change, negative = inhibition in assay [1] is -7.3%; in assay [2] it was -11.2%; in assay [3] it was -2.73%; in assay [4], -15.9%; in assay [5] it was 3.01%.

As for `COCCN1C(=O)c2cc3sccc3n2CC1(C)C(=O)NC1CCCCCC1` (stereo not drawn), the activity change, negative = inhibition in assay [1] was -5%; in assay [2], 2.21%; in assay [3], -6.43%; in assay [4], -13.6%; in assay [5], -6.21%.

`CCn1c(=O)n(CC)c2cc(S(=O)(=O)N3CCN(c4ccc(OC)cc4)CC3)ccc21`: the activity change, negative = inhibition was 11.4% in assay [1]; 1.78% in assay [2]; 12.8% in assay [3]; 3.1% in assay [4]; 9.42% in assay [5].

As to `Cc1ncoc1C(=O)N1CC[C@@H]2COCCN(Cc3ccncc3)[C@@H]2C1`, the activity change, negative = inhibition is -3.01% in assay [1]; -0.916% in assay [2]; 0.417% in assay [3]; -6.16% in assay [4]; -1.43% in assay [5].

The values above are taken from PubChem BioAssay AID1745853 (National Center for Advancing Translational Sciences (NCATS), 2022).
